Results: the supplement of paper PMC12217912
Some of the results follow. The full chains were built here from the parent and the listed change. Inactive controls read about 0.05.

B1: TEV protease; numbered along this chain (parent)
chain: MGESLFKGPRDYNPISSSICHLTNESDGHTTSLYGIGFGPFIITNKHLFRRNNGTLVVQSLHGVFKVKDTTTLQQHLVDGRDMIIIRMPKDFPPFPQKLKFREPQREERICLVTTNFQTKSMSSMVSDTSCTFPSGDGIFWKHWIQTKDGQCGSPLVSTRDGFIVGIHSASNFTNTNNYFTSVPKNFMELLTNQEAQQWVSGWRLNADSVLWGGHKVFMVKPEEPFQPVKEATQL

Variants of: B1
Assay: raw area under fraction-flipped curve 0-4 h after induction (AUC4h, not background-subtracted), DNA-recorder readout of cleavage of the substrate (dimensionless); higher = more cleavage of the substrate by the protease variant
Settings: temperature: 34 °C; time window: 0-4 h after rhamnose induction
Experimental: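 In vivo DNA recorder in E. coli TOP10(DE3) ΔrhaA at 34 °C. Each TEVp single-site mutant (parent TEVp 0) is paired with a single-site variant of the 7-mer TEVs (canonical ENLYFQ|S). The substrate sits between flexible linkers in a Bxb1-sfGFP-TEVs-SsrA fusion, so cleavage stabilises Bxb1 and speeds flipping of a recombination array, read by NGS. The value is the raw area under the fraction-flipped curve over 0-4 h after rhamnose induction (AUC4h), with ≥20 reads per time point. It is not background-subtracted; inactive controls average about 0.047.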
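Further: Bxb1 expression induced with 0.2% (w/v) L-rhamnose at OD600 near 0.5, cultures sampled hourly, flipped fraction per protease–substrate barcode pair counted by paired-end Illumina sequencing.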

Variant | area with substrate ENLYAQS | area with substrate ENLYEQS | area with substrate ENLYGQS | area with substrate ENLYHQS | area with substrate ENLYIQS | area with substrate ENLYKQS | area with substrate ENLYMQS | area with substrate ENLYNQS | area with substrate ENLYPQS | area with substrate ENLYQQS | area with substrate ENLYRQS | area with substrate ENLYSQS | area with substrate ENLYVQS | area with substrate ENLYWQS | area with substrate ENLYDQS | area with substrate ENLYLQS | area with substrate ENLYTQS | area with substrate ENLYYQS | area with substrate ENLYCQS
MGESLFKGPRDYNPISSSICHLTNESDGHTTSLYGIGFGPFIITNKHLFRRNNGTLVVQSLHGVFKVKDTTTLQQHLVDGRDMIIIRMPKDFPPFPQKLKFREPQREERICLVTTNFQTKSMSSMVSDTSCTFPSGDGIFWKHWIQTKDGQCGSPLVSTRDGFIVGIHFASNFTNTNNYFTSVPKNFMELLTNQEAQQWVSGWRLNADSVLWGGHKVFMVKPEEPFQPVKEATQL [S169F] | 0.0507 | 0.0616 | 0.0576 | 0.058 | 0.0656 | 0.059 | 0.0553 | 0.0659 | 0.0652 | 0.0512 | 0.0711 | 0.0572 | 0.0677 | 0.0555 |  |  |  |  | 
MGESLFKGPRDYNPISSSICHLTNESDGHTTSLYGIGFGPFIITNKHLFRRNNGTLVVQSLHGVFKVKDTTTLQQHLVDGRDMIIIRMPKDFPPFPQKLKFREPQREERICLVTTNFQTKSMSSMVSDTSCTFPSGDGIFWKHWIQTKDGQCGSPLVSTRDGFIVGIHSASNFTNTNNYFTSVPKLFMELLTNQEAQQWVSGWRLNADSVLWGGHKVFMVKPEEPFQPVKEATQL [N186L] | 0.0816 | 0.0683 | 0.0643 | 0.0668 | 0.123 | 0.0602 | 0.103 | 0.068 | 0.0647 | 0.0675 | 0.0558 |  |  | 0.0728 | 0.0509 | 0.0838 | 0.0721 | 0.0603 | 
MGESLFKGPRDYNPISSSICHLTNESDGHTTSLYGIGFGPFIITNKHLFRRNNGTLVVQSLHGVFKVKDTTTLQQHLVDGRDMIIIRMPKDFPPFPQKLKFREPQREERICLVTTNFQTKSMSSMVSDTSCTFPSGDGIFWKHWIQTKDGQCGSPLVSTRDGFIVGIHSASNFTNTNNYCTSVPKNFMELLTNQEAQQWVSGWRLNADSVLWGGHKVFMVKPEEPFQPVKEATQL [F180C] | 0.0701 | 0.0681 |  | 0.0367 |  | 0.0448 | 0.0704 | 0.061 | 0.071 |  | 0.076 | 0.0704 |  |  | 0.0425 |  |  | 0.0465 | 
MGESLFKGPRDYNPISSSICHLTNESDGHTTSLYGIGFGPFIITNKHLFRRNNGTLVVQSLHGVFKVKDTTTLQQHLVDGRDMIIIRMPKDFPPFPQKLKFREPQREERICLVTTNFQTKSMSSMVSDTSCTFPSGDGIFWKHWIQTKDGQCGSPLVSTRDGFIVGIHSAENFTNTNNYFTSVPKNFMELLTNQEAQQWVSGWRLNADSVLWGGHKVFMVKPEEPFQPVKEATQL [S171E] | 0.0788 | 0.0497 |  | 0.0712 |  | 0.0643 |  |  | 0.0644 |  | 0.058 |  | 0.0564 | 0.0561 | 0.0662 |  |  |  | 
MGESLFKGPRDYNPISSSICHLTNESDGHTTSLYGIGFGPFIITNKHLFRRNNGTLVVQSLHGVFKVKDTTTLQQHLVDGRDMIIIRMPKDFPPFPQKLKFREPQREERICLVTTNFQTKSMSSMVSDTSCTFPSGDGIFWKHWIQTKDGQCGSPLVSTRDGFCVGIHSASNFTNTNNYFTSVPKNFMELLTNQEAQQWVSGWRLNADSVLWGGHKVFMVKPEEPFQPVKEATQL [I164C] | 0.0775 | 0.0633 | 0.0564 | 0.0698 | 0.109 | 0.0424 | 0.0791 | 0.0652 | 0.0732 | 0.0545 | 0.0591 | 0.0744 | 0.111 | 0.0409 | 0.0559 | 0.0731 | 0.076 | 0.061 | 
MGESLFKGPRDYNPISSSICHLTNESDGHTTSLYGIGFGPFIITNKHLFRRNNGTLVVQSLHGVFKVKDTTTLQQHLVDGRDMIIIRMPKDFPPFPQKLKFREPQREERICLVTTNFQTKSMSSMVSDTSCTFPSGDGIFWKHWIQTKDGQCGSPLVSTRDGFIVGIWSASNFTNTNNYFTSVPKNFMELLTNQEAQQWVSGWRLNADSVLWGGHKVFMVKPEEPFQPVKEATQL [H168W] | 0.0612 | 0.0603 | 0.0604 | 0.064 | 0.0754 | 0.0625 | 0.0576 | 0.0647 | 0.0605 | 0.0604 | 0.0802 | 0.0673 |  | 0.061 | 0.0607 | 0.0782 | 0.058 |  | 
MGESLFKGPRDYNPISSSICHLTNESDGHTTSLYGIGFGPFIITNKHLFRRNNGTLVVQSLHGVFKVKDTTTLQQHLVDGRDMIIIRMPKDFPPFPQKLKFREPQREERICLVTTNFQTKSMSSMVSDTSCTFPSGDGIFWKHWIQTKDGQCGSPLVSTRDGFIVGWHSASNFTNTNNYFTSVPKNFMELLTNQEAQQWVSGWRLNADSVLWGGHKVFMVKPEEPFQPVKEATQL [I167W] | 0.058 | 0.0563 | 0.0576 |  | 0.0425 |  |  | 0.056 | 0.0565 | 0.0554 | 0.0629 |  | 0.0792 |  | 0.063 | 0.0705 |  | 0.0413 | 
MGESLFKGPRDYNPISSSICHLTNESDGHTTSLYGIGFGPFIITNKHLFRRNNGTLVVQSLHGVFKVKDTTTLQQHLVDGRDMIIIRMPKDFPPFPQKLKFREPQREERICLVTTNFQTKSMSSMVSDTSCTFPSGDGIFWKHWIQTKDGQCGSPLVSTRDGFIVGTHSASNFTNTNNYFTSVPKNFMELLTNQEAQQWVSGWRLNADSVLWGGHKVFMVKPEEPFQPVKEATQL [I167T] | 0.071 | 0.0653 |  | 0.0636 | 0.0745 | 0.067 | 0.0562 | 0.0565 |  |  |  | 0.0536 |  | 0.0635 | 0.0553 |  | 0.0681 |  | 
MGESLFKGPRDYNPISSSICHLTNESDGHTTSLYGIGFGPFIITNKHLFRRNNGTLVVQSLHGVFKVKDTTTLQQHLVDGRDMIIIRMPKDFPPFPQKLKFREPQREERICLVTTNFQTKSMSSMVSDTSCTFPSGDGIFWKHWIQTKDGQCGSPLVSTRDGFIVGIHSASNFTFTNNYFTSVPKNFMELLTNQEAQQWVSGWRLNADSVLWGGHKVFMVKPEEPFQPVKEATQL [N175F] | 0.0696 | 0.0452 | 0.0583 | 0.082 |  | 0.0536 |  | 0.0574 | 0.0524 | 0.0721 | 0.0576 | 0.0667 | 0.0865 |  | 0.0632 |  |  | 0.0682 | 
MGESLFKGPRDYNPISSSICHLTNESDGHTTSLYGIGFGPFIITNKHLFRRNNGTLVVQSLHGVFKVKDTTTLQQHLVDGRDMIIIRMPKDFPPFPQKLKFREPQREERICLVTTNFQTKSMSSMVSDTSCTFPSGDGIFWKHWIQTKDGQCGSPLVSTRDGFIVGIHSASNFTNTNNYFTSVPTNFMELLTNQEAQQWVSGWRLNADSVLWGGHKVFMVKPEEPFQPVKEATQL [K185T] | 0.0828 | 0.0569 | 0.0662 | 0.077 | 0.106 | 0.0655 | 0.101 | 0.072 | 0.0725 |  | 0.0624 | 0.0592 | 0.122 | 0.0775 | 0.0597 | 0.102 | 0.0684 |  | 0.119
